This note sets out measurements from article PMC4336329 (PLoS ONE, 2015).

The campaign covered roughly 310,000 compounds. About 2,200 (0.71%) showed an effect of 50% or more. The effect is printed as a negative number. This is one part of the list.

The target in this test is human ether-à-go-go-related gene (hERG) potassium channel (human, UniProt Q12809). Nature of the test: primary screen, population patch clamp on CHO cells stably expressing hERG.
Sequence of human ether-à-go-go-related gene (hERG) potassium channel (Q12809 whole entry, looked up): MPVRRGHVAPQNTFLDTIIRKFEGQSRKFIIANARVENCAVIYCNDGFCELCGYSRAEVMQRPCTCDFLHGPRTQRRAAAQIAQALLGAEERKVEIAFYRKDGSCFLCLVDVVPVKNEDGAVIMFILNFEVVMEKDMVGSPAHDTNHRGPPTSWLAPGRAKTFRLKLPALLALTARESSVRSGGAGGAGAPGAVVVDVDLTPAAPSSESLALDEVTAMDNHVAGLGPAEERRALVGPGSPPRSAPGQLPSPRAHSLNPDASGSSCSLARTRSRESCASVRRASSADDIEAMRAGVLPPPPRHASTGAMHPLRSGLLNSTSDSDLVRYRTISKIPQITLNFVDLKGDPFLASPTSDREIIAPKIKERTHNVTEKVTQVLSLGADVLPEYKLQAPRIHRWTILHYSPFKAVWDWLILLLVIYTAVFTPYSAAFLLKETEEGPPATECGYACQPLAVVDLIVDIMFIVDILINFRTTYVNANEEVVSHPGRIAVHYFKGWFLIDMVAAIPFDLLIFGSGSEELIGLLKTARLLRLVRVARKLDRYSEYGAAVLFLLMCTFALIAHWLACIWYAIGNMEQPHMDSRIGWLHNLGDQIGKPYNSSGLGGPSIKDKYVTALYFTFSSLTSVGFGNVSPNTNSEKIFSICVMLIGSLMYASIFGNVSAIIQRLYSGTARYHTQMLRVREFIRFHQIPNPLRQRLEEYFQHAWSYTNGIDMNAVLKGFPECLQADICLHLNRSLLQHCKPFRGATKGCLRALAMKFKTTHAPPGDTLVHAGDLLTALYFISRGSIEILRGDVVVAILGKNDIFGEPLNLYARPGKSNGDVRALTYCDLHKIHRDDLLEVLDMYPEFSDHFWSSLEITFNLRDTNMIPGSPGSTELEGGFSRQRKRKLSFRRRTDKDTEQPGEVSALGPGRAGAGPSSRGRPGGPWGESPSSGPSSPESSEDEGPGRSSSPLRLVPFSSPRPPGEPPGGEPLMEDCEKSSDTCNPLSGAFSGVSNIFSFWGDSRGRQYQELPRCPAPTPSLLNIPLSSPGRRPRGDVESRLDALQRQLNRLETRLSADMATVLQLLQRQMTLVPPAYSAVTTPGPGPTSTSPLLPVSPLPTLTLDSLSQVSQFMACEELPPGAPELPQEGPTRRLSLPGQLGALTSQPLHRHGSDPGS
For `COc1ccc(NC(=O)C2CCCN(c3cc(C)nc4ncnn34)C2)cc1` (stereo not shown), the “hERG current change (%, negative = inhibition) at 1uM” value worked out at 4.86%.
For `CCN(CC)C(=O)C[n+]1ccc(C(N)=O)cc1.[Cl-]`, the “hERG current change (%, negative = inhibition) at 1uM” value is listed as 11.2%.
Turning to `CC(C)c1nnc(NC(=O)Cc2cccs2)s1`, the “hERG current change (%, negative = inhibition) at 1uM” value was 10.4%.
On to `CCOC(=O)[C@H]1[C@H]2COc3ccc(Cl)cc3[C@@H]2N2C(=O)CN(Cc3ccco3)C(=O)[C@@]12C`, for which the “hERG current change (%, negative = inhibition) at 1uM” value came out at 12.8%.
`Cc1cc(C)cc(NC(=O)Cn2cc(C=O)c3ccccc32)c1`: the “hERG current change (%, negative = inhibition) at 1uM” value came to 14.5%.
On to `CC1CCCCN1C(=O)Cc1ccc(F)cc1` (stereo not shown), for which the “hERG current change (%, negative = inhibition) at 1uM” value was 3.52%.
In the case of `CC(=O)NC12CC3CC(C1)CC(C(=O)OCC(=O)Nc1ncc(Cl)c(C)c1Cl)(C3)C2`, the “hERG current change (%, negative = inhibition) at 1uM” value was determined as 17.6%.
For `OCCCNCc1ccc(N(c2ccccc2)c2ccccc2)cc1`, the “hERG current change (%, negative = inhibition) at 1uM” value was found to be 7.75%.
For `CCN1C(=O)c2ccccc2S(=O)c2ccc(C(=O)NCc3ccc(OC)cc3)cc21` (stereo not shown), the “hERG current change (%, negative = inhibition) at 1uM” value turned out to be 5.88%.
For the compound `COc1ccc(NC(=O)CN2CCC(NC(=O)C3CCCCC3)CC2)c([N+](=O)[O-])c1`, the “hERG current change (%, negative = inhibition) at 1uM” value is listed as 23.5%.
In the case of `COc1ccc(-c2cn3cccnc3n2)cc1NS(=O)(=O)c1ccccc1`, the “hERG current change (%, negative = inhibition) at 1uM” value was determined as 20.5%.
Take `Cc1noc(/C=C/N(C)C)c1S(=O)(=O)N1CCC(C(=O)NC(C)(C)C)CC1`: the “hERG current change (%, negative = inhibition) at 1uM” value is on record as 17.8%.
On to `CCOc1cc2c(cc1OC)C(NC(=O)C(F)(F)F)CC2=O` (stereo not shown), for which the “hERG current change (%, negative = inhibition) at 1uM” value is on record as -1.52%.
With `Cc1ccc(S(=O)(=O)N2CCC(C(=O)N3CCC3)CC2)cc1`, the “hERG current change (%, negative = inhibition) at 1uM” value came out at 11.3%.
Turning to `N#C/C(=C/c1cn(-c2ccccc2)nc1-c1cccc(OCc2ccc(F)cc2)c1)C(=O)NCCCn1ccnc1`, the “hERG current change (%, negative = inhibition) at 1uM” value came out at 10.3%.
For `Cc1cc(SCC(=O)c2cccs2)n2nc(C)c(-c3ccccc3)c2n1`, the “hERG current change (%, negative = inhibition) at 1uM” value is recorded as -3.64%.
Consider `Cn1c(O)c(C=NC2CCCCC2)c(=O)[nH]c1=S`, for which the “hERG current change (%, negative = inhibition) at 1uM” value is on record as -3.07%.
In the case of `COc1c(C)cc(Br)cc1C(=O)Nc1ccc(Cc2ccncc2)cc1`, the “hERG current change (%, negative = inhibition) at 1uM” value came to 6.64%.
For the compound `CN(c1ccc(C(=O)Nc2ccc3c(c2)n(C)c(=O)n3C)cc1)S(C)(=O)=O`, the “hERG current change (%, negative = inhibition) at 1uM” value is 14.2%.
As for `CCOC(=O)c1ccc(NC(=O)C(=O)NCc2ccco2)cc1`, the “hERG current change (%, negative = inhibition) at 1uM” value worked out at 16.3%.
As to `CCOc1ccc(/C=N\NC(=O)CC(=O)NCCc2ccccc2)cc1`, the “hERG current change (%, negative = inhibition) at 1uM” value is 14.3%.
Consider `NC(=O)COC(=O)CCCc1nc2ccccc2s1`, for which the “hERG current change (%, negative = inhibition) at 1uM” value is listed as 4.75%.
`O=C(CCC1CCCN(C(=O)COc2ccccc2)C1)N1CCN(c2ccccn2)CC1` (stereo not shown): the “hERG current change (%, negative = inhibition) at 1uM” value was 0.893%.
For the compound `COC/C=C/C1=CC2=CC(=O)C(C)(OC(=O)c3cnc4ccccc4n3)C(=O)C2=CN1C1CCCC1` (stereo not shown), the “hERG current change (%, negative = inhibition) at 1uM” value was 7.78%.
In the case of `O=c1c(O)c(-c2ccc(O)cc2)oc2cc(O)cc(O)c12`, the “hERG current change (%, negative = inhibition) at 1uM” value stood at 11.3%.
With `O=C1NC(=O)C(=Cc2ccc(SC3CCCCC3)o2)C(=O)N1`, the “hERG current change (%, negative = inhibition) at 1uM” value came out at 11.7%.
In the case of `CCCCn1c(=O)c(C(=O)Nc2nnc(C(C)C)s2)c(O)c2ccccc21`, the “hERG current change (%, negative = inhibition) at 1uM” value is given as 5.61%.
Next, `CCN(CC)S(=O)(=O)c1cccc(-c2nnc(C(=O)c3ccc(C(F)(F)F)cc3)o2)c1`: 10%; `O=[N+]([O-])c1ccc(Cl)c(S(=O)(=O)/N=C(/c2ccccc2)N2CCOCC2)c1`: 17.4%; `Cc1ccc(NC(=O)CSc2nnc(C)c(=O)[nH]2)cc1C`: 5.34%.
Next, `CCOc1cc(C2C(C(=O)c3ccc(C)o3)=C(O)C(=O)N2CCc2ccccc2)ccc1O` (stereo not shown): 12.3%; `Cc1cc(=O)oc2cc(NC(=O)c3cc([N+](=O)[O-])ccc3N3CCOCC3)ccc12`: 11.5%.
Next, `COc1ccc(C(OCC(O)CNCCc2ccccc2)c2ccc(OC)cc2)cc1.O=C(O)C(=O)O` (stereo not shown): -7.18%; `Cc1ccccc1Cn1nc(C)c(NC(=O)c2sc3ccccc3c2Cl)c1C`: 6.52%; `COC(=O)Cc1ccc(NC(=S)Nc2cccc(C)n2)cc1`: 14.7%.
In the case of `O=C(NC(c1cccnc1)C(F)(F)F)c1cc(COc2ccc3c(c2)CCCC3)on1` (stereo not shown), the “hERG current change (%, negative = inhibition) at 1uM” value was determined as 9.95%.
Regarding `COc1cccc(/C=N/NC(=S)NCCc2ccccc2)c1`, the “hERG current change (%, negative = inhibition) at 1uM” value is reported as 13.9%.
Turning to `O=C(Nc1ccc(OCC(F)(F)C(F)F)c(C(F)(F)F)c1)c1ccccc1`, the “hERG current change (%, negative = inhibition) at 1uM” value stood at 9.25%.
For `Cc1ccc(-c2noc(CCCN3C(=O)c4ccccc4C3=O)n2)cc1`, the “hERG current change (%, negative = inhibition) at 1uM” value was 5.8%.
As to `O=C(/C=C/c1ccc(S(=O)(=O)NCc2ccco2)cc1)NCc1ccccc1Cl`, the “hERG current change (%, negative = inhibition) at 1uM” value is 3.3%.
For the compound `CCCCn1c(N)c(N(CC(C)C)C(=O)CSc2ccc([N+](=O)[O-])cc2)c(=O)[nH]c1=O`, the “hERG current change (%, negative = inhibition) at 1uM” value is -4.44%.
Regarding `Cc1ccc(N2CC(C(=O)NCCC3=CCCCC3)CC2=O)cc1` (stereo not shown), the “hERG current change (%, negative = inhibition) at 1uM” value was determined as 1.88%.
Regarding `CCC1C(=O)N=C(SCC(=O)Nc2cccc3ccccc23)NC1=O` (stereo not shown), the “hERG current change (%, negative = inhibition) at 1uM” value is recorded as -6.66%.
